The list shows a part of the results.
What follows are sequences tested on T1, Caupolican (Caup) homeodomain DNA-binding domain (assay: PBM E-score (8-mer, recovered from the published 9-mer minima) (E-score (dimensionless, -0.5 to 0.5)); Drosophila protein; higher = stronger relative binding preference, active = 0.31 or more).
T1 sequence: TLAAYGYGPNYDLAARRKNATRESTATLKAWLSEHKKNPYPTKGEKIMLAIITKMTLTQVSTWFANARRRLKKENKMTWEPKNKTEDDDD
Description: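 Protein binding microarray (PBM): in vitro transcribed/translated Caupolican (Caup) homeodomain DNA-binding domain (residues 214-303) applied at 100 nM to a universal 8-mer PBM array (Agilent AMADID 015681). The 8-mer enrichment score (E-score, range -0.5 to 0.5) was computed, and each 9-mer score is the minimum E-score of its two constituent 8-mers. The E-score is the same for a 9-mer and its reverse complement; 0.31 is the stated binding threshold.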

Sequence	PBM E-score
AATTGAGC	inactive: -0.0237
CGGGTTAG	inactive: -0.0766
CCCACGAC	inactive: -0.16
TCGGGGAA	inactive: -0.0407
ACCCTGTA	≥ 0.166
CGTTGGCC	inactive: -0.176
AAGGCTAG	inactive: 0.01
CTCTATTA	inactive: 0.0344
CAGAGGGG	inactive: -0.312
ATAATAGG	inactive: 0.0633
ATCATGTC	active: ≥ 0.42
ACTGTACT	inactive: 0.0884
AGGGTTCA	inactive: -0.0368
GTTACACA	active: 0.339
CGTTACAG	inactive: 0.128
CCTGGTAC	inactive: 0.161
AGTGGTCC	inactive: -0.0558
GTAATGTA	inactive: 0.273
CCAACAAG	inactive: 0.196
ATCGTTAA	inactive: 0.149
CTATTTTA	inactive: 0.0799
AACGTACC	inactive: 0.0531
AAAGAACG	inactive: -0.0322
CTTTGTAA	inactive: 0.259

Sequence	PBM E-score
GAGCCGGA	inactive: -0.276
AGCAAGGG	inactive: -0.0948
ACGGACAG	inactive: 0.0915
ACCATTCC	inactive: 0.0013
CAATGAAA	inactive: 0.0427
AACTCAGC	inactive: -0.115
CGTAGGGA	inactive: -0.065
AACATTGC	inactive: 0.193
CCTCCCCA	inactive: -0.169
AGTAACCG	inactive: -0.0194
CGTTGGAA	inactive: 0.00621
AGGATGGG	inactive: -0.132
AGTTTTCA	inactive: 0.0509
AAGCTTCT	inactive: -0.0362
AAGCAAAC	inactive: 0.102
CACAAGAA	inactive: 0.0855
GGGATACC	inactive: -0.141
ATAGTGTA	≥ 0.211
TGTCTGAA	inactive: 0.159
ACGAGCTC	inactive: -0.0848
GATACCAC	inactive: 0.00761
AGATATAG	inactive: 0.165
AGGTCTAG	inactive: -0.121
GGTCGACA	inactive: 0.0565

Sequence	PBM E-score
CATAGCAG	inactive: 0.0448
ACGCGAGT	≥ -0.00136
ACACTGCC	inactive: 0.0956
ATTGGGAC	inactive: 0.0623
CTCACGGA	inactive: -0.0859
ATCAACCG	inactive: -0.0335
CCCCAGGC	inactive: -0.251
ATTGTATC	inactive: 0.215
ACAGAGGG	inactive: -0.13
CTTGTGCC	inactive: -0.0395
ATAAATGC	inactive: 0.0532
ACCTTTCT	inactive: -0.011
CCTCTACC	inactive: -0.0946
ATAATTAT	≥ 0.255
AGGACCCT	inactive: -0.0986
AGACACAA	inactive: 0.248
CGTAAAAA	inactive: 0.0273
ATGCTTTG	inactive: 0.173
GTGAATAA	inactive: 0.143
ACTTTCCA	≥ 0.0062
CATTTAGA	inactive: 0.0432
CTCAGAGA	inactive: -0.143
TGGTTAAA	inactive: 0.112
TATGCATA	inactive: 0.114

Sequence	PBM E-score
ATTCGGCC	inactive: -0.0735
GTCATCCA	inactive: 0.073
GGGATTAC	inactive: 0.0873
GAAGTGCC	inactive: -0.133
AAGGAACA	inactive: 0.211
AATGGCCG	inactive: -0.165
ATATCGTG	inactive: 0.106
CTCTCGTC	inactive: -0.0767
CGCACATC	inactive: -0.0196
AACCGCTG	inactive: -0.0919
AATACCAG	inactive: 0.171
GCGTGGGA	inactive: -0.135
CCAAACAC	inactive: 0.152
AAAGCGAG	inactive: -0.102
AAGACCTG	inactive: -0.0291
CACCCCCA	inactive: -0.112
AAAGCACG	inactive: 0.021
CGAAAGGA	inactive: 0.0204
GCATTCTA	inactive: 0.0737
AGTAAGAA	inactive: 0.06
AAGAGAAA	inactive: -0.0885
GAAATTGA	inactive: 0.016
GCTCAACC	inactive: -0.147
AGTTATCC	inactive: 0.076

Sequence	PBM E-score
TGCGGGAA	inactive: -0.119
CTAGCTGA	inactive: -0.0069
ACGTGTCC	inactive: 0.17
CACGATGA	inactive: 0.0802
AGCCCGTG	inactive: -0.198
AGTATGGA	inactive: 0.0729
CAGCCGTA	inactive: -0.0465
ATGGCGAG	inactive: -0.11
ACGTACGA	inactive: 0.0503
CAGTAGCA	inactive: 0.0416
GATTGAGC	inactive: -0.105
ACCCTCCT	inactive: -0.2
AATCAGGC	inactive: -0.0419
GTTAAAGA	inactive: 0.0986
ACCAGACG	inactive: -0.0302
ATACCAGA	inactive: 0.146
GGTGCAAA	inactive: -0.08
GGGCCGGA	inactive: -0.303
GCTTTCAC	inactive: -0.0248
ACTTCCAC	inactive: 0.0199
ATGGTGTG	inactive: 0.112
AACGGGGG	inactive: -0.236
ACGAGGCC	inactive: -0.171
CCGAAGCG	inactive: -0.222

Sequence	PBM E-score
AAGGGAAA	inactive: -0.00432
GCCGAGTA	inactive: -0.143
CCTGTATC	inactive: 0.125
ATCCAACA	inactive: 0.192
ATCTAAGC	inactive: -0.0923
AGATCAAC	inactive: 0.0938
AGGTACCA	≥ 0.0649
CATACTAG	inactive: 0.237
ATGTTGCG	inactive: 0.225
ACAACTCT	inactive: 0.147
ACAACTGA	≥ 0.224
GCCCTCCA	inactive: -0.222
CCATTACG	inactive: -0.0233
ATCTACCC	inactive: -0.072
CACCCCCG	inactive: -0.222
AGGTTTTG	inactive: -0.0365
CCCACACG	inactive: -0.0758
ACCGGTGA	inactive: -0.0922
ATTGTGTG	inactive: 0.142
ACCTCCGA	inactive: -0.0504
ACTGTGCG	inactive: -0.0021
GGGGCGAA	inactive: -0.197
AAGGGACA	inactive: 0.124
TACGTATA	inactive: 0.171

— the supplement of paper PMC3724861
